# PubChem BioAssay AID1240 (Sanford-Burnham Center for Chemical Genomics, 2008)
# In all, about 50,000 compounds went through this assay and about 800 (1.6%) showed an effect of 50% or more. This is one part of the list.
# Target: Bcl-2-like protein 10 (Homo sapiens) (UniProt Q9HD36)
# Assay: TR3 peptide-Bcl-B binding displacers, biochemical primary FP assay, phenotype converters (AID 1240);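 further: 0% = Bcl-B with tracer peptide and DMSO and 100% = tracer peptide lacking Bcl-B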
# Settings: GST-Bcl-B / FITC-TR3 peptide fluorescence polarization; stronger effect = higher value; compound at 3.75 mg/L
# Sequence of UniProt Q9HD36 (Q9HD36 whole entry, looked up): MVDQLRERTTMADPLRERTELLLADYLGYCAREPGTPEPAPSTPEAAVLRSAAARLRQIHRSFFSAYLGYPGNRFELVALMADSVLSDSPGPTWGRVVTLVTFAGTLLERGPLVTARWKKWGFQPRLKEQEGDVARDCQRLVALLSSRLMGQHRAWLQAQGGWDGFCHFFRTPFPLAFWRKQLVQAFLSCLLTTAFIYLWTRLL
row,SMILES,displacement [%]
1,Cc1cccc(C(=O)NCCc2nc3ccccc3[nH]2)c1,-9.3
2,C/C(=N/NC(=O)c1sc2cc(F)ccc2c1Cl)c1cccs1,132
3,Cc1cc(C(=O)Nc2nc(-c3ccc(Cl)cc3)cs2)ccc1[N+](=O)[O-],-6.2
4,CC(C)(Cc1ccc(O)cc1)NC(=O)c1ccccc1,14.1
5,O=C1/C(=C/c2ccc(-c3ccccc3[N+](=O)[O-])o2)SC(=Nc2ccccc2)N1c1ccccc1,3.9
6,Cc1ccc(S(=O)(=O)N(Cc2ccccc2)Cc2ccco2)cc1,4.3
7,CC(C)C12CN3CC(C(C)C)(CN(C1)C3c1cccc([N+](=O)[O-])c1)C2=O (stereo not given),-6.4
8,COC(=O)c1c(NC(=O)/C=C/c2ccco2)sc2c1CCC(C)C2 (stereo not given),23.7
9,CCOc1ccc(C(=O)Nc2cc(-c3nc4ccccc4s3)ccc2C)cc1Cl,6.8
10,COc1cc(C=O)ccc1OCCOc1ccc(C)c(C)c1,11.6
11,CCCOc1ccc(C(=O)Nc2sc(C)cc2C(=O)OC)cc1,-6.5
12,CCOc1ccccc1NC(=O)CN(c1ccc(C)cc1)S(=O)(=O)c1ccc(F)cc1,10.7
13,Cc1n[nH]c(C)c1Sc1ccc(Br)cc1,-9.2
14,Cc1ccc(-c2cc(C(=O)Nc3ccc(Br)cc3)c3ccccc3n2)o1,0.5
15,CCC1(C)CC(CC(=O)O)(c2ccc(F)cc2)CCO1 (stereo not given),-5
16,CCCOc1ccc(N2C(=O)CC(Nc3ccc(Cl)cc3)C2=O)cc1 (stereo not given),-3.4
17,CCn1nc(C(C)C(=O)O)c2ccccc2c1=O (stereo not given),1.7
18,COc1ccccc1/C=N/N=C1/NC(=O)C(CC(=O)Nc2ccc(Cl)c(Cl)c2)S1 (stereo not given),9.4
19,NC(=O)SCC(=O)Nc1ccc(I)cc1,5.1
20,COc1ccccc1OCCOc1ccc(/C=C2/SC(=S)N(C)C2=O)cc1,3.9
21,O=C(COc1ccccc1)Nc1nn[nH]n1,9.5
22,COc1ccc(C(=O)Nc2ccccc2)cc1NC(C)=O,7.6
23,O=C(CCc1ccccc1)Nc1ccc(Cc2ccncc2)cc1,7.7
24,O=C(CSc1nc2sc3c(c2c(=O)[nH]1)CCCC3)NCCCn1ccnc1,0.6

row,SMILES,displacement [%]
1,O=C1NC(=S)NC(=O)C1=Cc1cc(Br)c(Sc2ccc(Cl)cc2)o1,-0.9
2,Cc1onc(-c2c(Cl)cccc2Cl)c1C(=O)Nc1ccc(OCc2ccccc2)cc1,4.6
3,COc1ccccc1C1SCCN1S(=O)(=O)c1ccc2ccccc2c1 (stereo not given),-3
4,O=C1C2C3C=CC(C3=C3CCCC3)C2C(=O)N1c1cccc([N+](=O)[O-])c1 (stereo not given),1.8
5,COc1ccc(-c2nnc(NC(=O)Nc3ccc(Cl)c(Cl)c3)s2)cc1,27
6,O=C(Nc1ccc2ccccc2c1)c1ccc(-c2cccc(Cl)c2)o1,10.2
7,CCOC(=O)c1c(NC(=O)Cc2ccccc2)sc(C(=O)N2CCCCC2)c1C,-6.6
8,CC1CCC(C(C)C)C(OC(=O)c2ccco2)C1 (stereo not given),15.4
9,CS(=O)(=O)N(CC(=O)NCc1ccccc1)c1ccc(Oc2ccccc2)cc1,7.1
10,COC(=O)c1ccc(OC(=O)CN2C(=O)c3cccc([N+](=O)[O-])c3C2=O)cc1,-1.7
11,O=C(NCC1CCCO1)C12CC3CC(CC(C3)C1)C2 (stereo not given),2.8
12,CCSc1nnc(N2C(=O)c3ccc(C(=O)c4ccc(C(=O)O)cc4)cc3C2=O)s1,-20.9
13,COC(=O)c1cc(Cl)c(NC(=O)COc2ccc(C)cc2C(C)(C)C)cc1OC,-11.5
14,COc1ccc(CC(=O)Nc2ccccc2C(F)(F)F)cc1,-12.6
15,COC(=O)c1c(N=CN(C)C)c(C#N)c(C)n1-c1ccccc1,3.9
16,COc1ccc(/C=C2\SC(=S)N(Cc3ccco3)C2=O)cc1,14.2
17,Cc1cc(C)cc(CC2CC(=O)N(c3cc(C)ccc3C)C2=O)c1 (stereo not given),5.8
18,COc1ccc(C(=O)Nc2ccc(Br)c(C)c2)cc1OC,-0.5
19,N#Cc1c(-c2ccccc2)cc(-c2ccc(Br)cc2)nc1N,8.8
20,O=C(CN1CCCC1=O)NC1C2CC3CC(C2)CC1C3 (stereo not given),-3.3
21,CC(C)(C)Nc1nc(Nc2ccccc2)nc(Nc2ccccc2)n1,8.6
22,Nc1ccc(C(=O)NCCNCCNC(=O)c2ccc(N)cc2)cc1,8
23,COC(=O)CSc1nnc2n(-c3ccc(OC)cc3)c(=O)c3c4c(sc3n12)CCCC4,5.6
24,CC(C)OC(=O)c1c(-c2ccc(F)cc2)csc1N,1.3

row,SMILES,displacement [%]
1,C#Cc1cccc(NC(=O)c2ccc(OC)cc2)c1,-6.4
2,COc1cc(C(=O)Nc2cccc(-c3nc4ncccc4o3)c2)ccc1OCc1ccc(Cl)cc1,-2.1
3,C/C(=N\N=C\c1cccnc1)C1C(=O)c2ccccc2C1=O,31.4
4,COc1cc(/C=C2/SC(=S)NC2=O)ccc1OC(=O)c1ccc(Cl)cc1,11.4
5,Nc1c(Cl)cc(-c2nc3ccccc3o2)cc1Cl,10.5
6,CN(C)/C=C/C=C/C(=O)c1ccc(/C=C/C=C/N(C)C)o1,36.1
7,Cc1ccc(C(=O)Nc2ccc(Cl)cc2)o1,-4.4
8,C=CCc1cccc(/C=N/NC(=O)CSc2nc3ccccc3n2CC)c1O,0.4
9,O=C(O)c1ccc(Nc2nc(-c3ccccc3)c3cc(Cl)ccc3n2)cc1,1.1
10,COC(=O)c1ccc(C(=O)OC)c(NC(=O)C(C)Oc2ccc(Cl)cc2C)c1 (stereo not given),1
11,Cc1no[n+]([O-])c1COc1ccccc1/C=C1\SC(=S)NC1=O,-34.3
12,COc1ccc(S(=O)(=O)N2CCN(Cc3cccc(Oc4ccccc4)c3)CC2)cc1,11.6
13,O=C(Nc1cccc(C(=O)Nc2cccc(Cl)c2)c1)c1ccc(F)cc1,-2.6
14,COc1ccc(OC(C)C(=O)Nc2ccc3c(c2)OCCO3)cc1 (stereo not given),-4.5
15,COc1ccc(N(CC(=O)N/N=C/c2cc(Br)c(C)o2)S(=O)(=O)c2ccccc2[N+](=O)[O-])c(OC)c1,-25.5
16,COc1ccc(/C=N\NC(=O)c2c(C)nc3cc(C)ccn23)c(OC)c1,0.6
17,CN(C)CCNC(=O)C(NC(=O)c1ccccc1)C12CC3CC(CC(C3)C1)C2 (stereo not given),-1.7
18,O=C(NCCCN1CCOCC1)c1ccc(Cl)cc1Cl,1.2
19,O=S(=O)(c1ccc(Oc2ccccc2)cc1)N1CCCCC1,-7.3
20,COC(=O)c1c(C)oc2cc(Br)c(OC(=O)c3ccco3)cc12,11.2
21,COc1ccccc1N1CCN(/N=C/c2ccccc2C(=O)O)CC1,2.5
22,CC1(C)Cc2c(sc(N)c2C#N)C(C)(C)N1,0.7
